The record followed here is PMC4336329 (PLoS ONE, 2015).

SMILES strings stand for the structures. Screen size: about 310,000 compounds; about 14,000 (4.5%) showed an effect of 50% or more. The effect is printed as a negative number. The list shows a part of the results.
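Further: peak tail current of the secondary pulse compared with the same well before compound.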

For the test, the target named is human ether-à-go-go-related gene (hERG) potassium channel (human, UniProt Q12809). The test is described as follows: primary screen, population patch clamp on CHO cells stably expressing hERG.
human ether-à-go-go-related gene (hERG) potassium channel, sequence (Q12809 whole entry, looked up): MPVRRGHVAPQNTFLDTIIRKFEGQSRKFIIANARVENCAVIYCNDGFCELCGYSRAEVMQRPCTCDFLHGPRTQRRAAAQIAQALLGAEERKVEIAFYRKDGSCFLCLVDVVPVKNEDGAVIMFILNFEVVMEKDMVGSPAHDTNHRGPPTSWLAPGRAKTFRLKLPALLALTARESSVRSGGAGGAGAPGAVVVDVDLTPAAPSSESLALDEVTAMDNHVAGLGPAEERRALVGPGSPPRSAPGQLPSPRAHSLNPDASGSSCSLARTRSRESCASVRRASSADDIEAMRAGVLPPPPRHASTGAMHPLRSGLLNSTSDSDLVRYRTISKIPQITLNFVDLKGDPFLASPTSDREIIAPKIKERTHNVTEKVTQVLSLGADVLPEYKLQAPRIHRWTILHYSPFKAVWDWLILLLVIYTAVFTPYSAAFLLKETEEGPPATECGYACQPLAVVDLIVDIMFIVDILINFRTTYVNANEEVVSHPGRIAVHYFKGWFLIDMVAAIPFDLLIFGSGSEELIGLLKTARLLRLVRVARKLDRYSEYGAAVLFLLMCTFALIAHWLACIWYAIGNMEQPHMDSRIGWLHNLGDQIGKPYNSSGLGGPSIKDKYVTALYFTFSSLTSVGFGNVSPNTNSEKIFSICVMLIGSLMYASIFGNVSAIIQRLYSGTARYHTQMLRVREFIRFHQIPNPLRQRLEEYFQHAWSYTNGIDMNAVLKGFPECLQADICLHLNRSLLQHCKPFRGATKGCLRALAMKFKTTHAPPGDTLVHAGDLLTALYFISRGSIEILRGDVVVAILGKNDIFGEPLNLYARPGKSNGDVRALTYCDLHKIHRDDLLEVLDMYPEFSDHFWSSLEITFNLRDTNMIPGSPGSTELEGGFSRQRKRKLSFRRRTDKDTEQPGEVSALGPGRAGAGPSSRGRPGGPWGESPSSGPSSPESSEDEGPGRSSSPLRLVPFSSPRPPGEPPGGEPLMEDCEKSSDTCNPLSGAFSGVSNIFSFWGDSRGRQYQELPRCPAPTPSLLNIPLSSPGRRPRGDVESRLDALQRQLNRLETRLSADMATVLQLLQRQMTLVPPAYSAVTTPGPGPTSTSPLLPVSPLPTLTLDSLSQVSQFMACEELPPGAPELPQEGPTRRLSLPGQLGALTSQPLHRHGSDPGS
In the case of `CC(C)(C)c1ccc(C(=O)Nc2cccc([N+](=O)[O-])c2)cc1`, the “hERG current change (%, negative = inhibition) at 10uM” value is -5.5%. As for `COC(=O)C1=C(C)N=C2SC(C#N)=C(N)N2C1c1ccc(OCc2ccccc2)cc1` (stereo not drawn), the figure is 0.349%; as for `CCOc1ccccc1NC(=O)Cn1c(-c2ccc(Cl)cc2)noc1=O`, -2.01%. In the case of `O=C(O)C[C@H]1c2cc(F)ccc2S(=O)(=O)N1C1CCN(Cc2ccccc2)CC1`, the “hERG current change (%, negative = inhibition) at 10uM” value amounted to 7.58%. As to `COc1ccc(CCN=C(C)c2cc(C)c(C)cc2O)cc1OC`, the “hERG current change (%, negative = inhibition) at 10uM” value was 5.79%. Turning to `OCC[C@H]1C[C@@H](O)[C@H](O)[C@@]2(CCc3ccccc3CO2)O1`, the “hERG current change (%, negative = inhibition) at 10uM” value is -1.53%.

With `Cc1ccc(C2CCN(C(=S)NC(C)(C)C)C2)cc1` (stereo not drawn), the “hERG current change (%, negative = inhibition) at 10uM” value is 0.155%. The result for `Nc1nc(N)nc(-c2cc(Cl)ccc2Cl)n1.O=C(O)/C=C\C(=O)O` reads -8.52%; that for `O=C(NC(Cc1c[nH]c2ccccc12)C(=O)O)c1ccc2c(c1)OCO2` (stereo not drawn), 19.1%; that for `COc1ccccc1NC(=O)N1C2CCCC1CC(NC(=O)c1ccccc1)C2` (stereo not drawn), 11.6%. Regarding `COc1ccccc1NC(=O)Nc1nc(CC(=O)Nc2ccc(F)cc2)cs1`, the “hERG current change (%, negative = inhibition) at 10uM” value is reported as -1.25%. The result for `CNC(=O)COC(=O)COc1ccc2c(C)cc(=O)oc2c1` reads 21.7%; that for `Cc1cc(N2CCCC2)nc2ccccc12`, -41.2%. The result for `CC(C)CCNC(=O)C(=O)NCCC1=CCCCC1` reads 9.15%. As for `COC(=O)c1ccc(N2CCN(S(=O)(=O)c3ccc(C)cc3)CC2)c([N+](=O)[O-])c1`, the figure is 4.78%; as for `COc1ccc(N2CCN(c3cc(C)c4ccc(O)cc4n3)CC2)cc1`, -24.4%; as for `CC(C)(CC(=O)O)CC(=O)NNc1ncccc1C#N`, 18.4%. For `CC1CC(C)CN(CCCNC(=O)Cc2c(C(=O)O)[nH]c3ccccc23)C1` (stereo not drawn), the “hERG current change (%, negative = inhibition) at 10uM” value was found to be 15.7%. As for `Cc1ccc(-c2c3c(=O)n(C)c(=O)n(C)c3cn2Cc2ccccn2)cc1`, the figure is -0.562%; as for `O=C(CCCNC(=O)c1ccc(Cl)cc1)Nc1ccccc1F`, 7%. As for `Cc1cccc(C(=O)N2CCN(S(=O)(=O)c3ccc4c(c3)OCCCO4)CC2)c1[N+](=O)[O-]`, the figure is -4.78%. As for `O=C(COc1ccccc1[N+](=O)[O-])NCCCN1CCCC1=O`, the figure is 12.5%.

In the case of `CCOc1ccccc1CNC(=O)c1ccccc1NC(=O)C1=CSCCO1`, the “hERG current change (%, negative = inhibition) at 10uM” value is listed as 15.4%. As for `Cc1ccc(S(=O)(=O)N2CCCCC2)cc1NC(=O)c1ccc(Br)o1`, the figure is -37.3%. Consider `CCOC(=O)c1nn(-c2ccc(OCC)cc2)c(C)c1C(C)=O`, for which the “hERG current change (%, negative = inhibition) at 10uM” value is reported as -4.47%. The result for `COC(=O)c1cc(S(=O)(=O)NCC2CCN(Cc3cccc(F)c3)CC2)cn1C` reads -18.5%. `O=C(COc1ccc2ccccc2c1)NCC1CCCO1` (stereo not drawn): the “hERG current change (%, negative = inhibition) at 10uM” value amounted to 0.778%.

As for `CN1CC2(C)CN(C(c3ccccc3)c3ccccc3)CC(C)(C1)C2O` (stereo not drawn), the “hERG current change (%, negative = inhibition) at 10uM” value is listed as -39.3%. As for `CC1(C)C(c2ccccc2)=NC(c2cccnc2)N1O` (stereo not drawn), the figure is -7.09%; as for `Cc1ccc(Cl)cc1N1CCN(C(=O)CNC(=O)c2ccc(Br)o2)CC1`, -55.9%; as for `N#Cc1ccc(C(=O)Nc2nc(-c3cccs3)c(C(=O)C(F)(F)F)s2)cc1`, -44.2%.

Take `Cc1ccc(Sc2nc3c(c(=O)[nH]c(=O)n3C)n2CCc2ccccc2)cc1`: the “hERG current change (%, negative = inhibition) at 10uM” value is 5.16%. As for `CC(=O)Nc1nc(-c2ccc(Cl)cc2)ns1`, the figure is -0.655%; as for `Cc1ccc(Nc2ccccc2)cc1`, 5.68%. Regarding `CCN1CCN(Cc2ccc(NC(=O)c3cc(NC(=O)c4nccnc4N)cc(OC)c3)cc2C(F)(F)F)CC1`, the “hERG current change (%, negative = inhibition) at 10uM” value was 6.98%. `O=C(Nc1ccccc1Cl)N1CCN(c2ccc3nnc(-c4ccccc4)n3n2)CC1`: the “hERG current change (%, negative = inhibition) at 10uM” value is reported as -73.5%. As for `CCC1C(c2ccccc2)NC(c2ccccc2)CC1(O)c1ccc(F)cc1.Cl` (stereo not drawn), the figure is 11.4%; as for `COC(=O)CSc1nnc(CNS(=O)(=O)c2ccc(Br)cc2)n1C`, 10.8%.

In the case of `CC(C(=O)N1CCCC1)N1CCN(c2ccccc2O)CC1` (stereo not drawn), the “hERG current change (%, negative = inhibition) at 10uM” value was 27.6%. As to `O=[N+]([O-])c1ccccc1/C=C/C=N/n1c(-c2ccc(Cl)cc2)n[nH]c1=S`, the “hERG current change (%, negative = inhibition) at 10uM” value came out at 17.5%. With `CC(C)NC(=O)NC(=O)CSc1nnc(-c2ccccc2F)n1N`, the “hERG current change (%, negative = inhibition) at 10uM” value came out at 4.37%.

As for `O=C(CN1C(=O)C2C3C=CC(C3)C2C1=O)Nc1ccc(C(=O)O)cc1` (stereo not drawn), the “hERG current change (%, negative = inhibition) at 10uM” value stood at 16.2%.

With `O=C(Cn1ccc2ccccc2c1=O)Nc1ccc2c(c1)OCO2`, the “hERG current change (%, negative = inhibition) at 10uM” value is 4.31%.

Turning to `COc1cc(OC)cc(C(=O)Nc2cccc(NC(=O)c3ccccc3)c2)c1`, the “hERG current change (%, negative = inhibition) at 10uM” value was -27.3%. With `CC(=O)Nc1cccc(C(=O)/C=C/c2ccco2)c1`, the “hERG current change (%, negative = inhibition) at 10uM” value is recorded as 7.75%.
